Data as given in PMC12489035.
No constants are given. Whether binding was seen depends on the method and setting. Binding seen in cells or lysates may run through a third protein. Some results given as binding are weak or reduced against the parent protein; the word gives no strength.

The chains behind the UniProt entries cited, without tags or fusion partners.
UniProt P49757: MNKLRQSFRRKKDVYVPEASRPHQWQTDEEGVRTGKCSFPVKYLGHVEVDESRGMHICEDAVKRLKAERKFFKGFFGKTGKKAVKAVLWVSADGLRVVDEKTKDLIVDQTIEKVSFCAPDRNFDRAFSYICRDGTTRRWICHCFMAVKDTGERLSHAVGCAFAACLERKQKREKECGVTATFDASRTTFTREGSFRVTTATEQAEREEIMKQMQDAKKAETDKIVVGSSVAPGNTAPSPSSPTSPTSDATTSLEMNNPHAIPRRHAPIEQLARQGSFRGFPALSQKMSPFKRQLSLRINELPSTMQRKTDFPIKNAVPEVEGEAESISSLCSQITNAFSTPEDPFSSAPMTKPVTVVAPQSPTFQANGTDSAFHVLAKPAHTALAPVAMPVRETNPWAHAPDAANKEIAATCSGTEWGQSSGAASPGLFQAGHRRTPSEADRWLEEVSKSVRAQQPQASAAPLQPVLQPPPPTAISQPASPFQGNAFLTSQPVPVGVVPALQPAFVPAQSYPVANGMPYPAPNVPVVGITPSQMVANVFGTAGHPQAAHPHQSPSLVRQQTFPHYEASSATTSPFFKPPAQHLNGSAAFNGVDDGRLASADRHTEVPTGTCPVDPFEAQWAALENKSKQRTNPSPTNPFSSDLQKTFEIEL
UniProt Q9NR12: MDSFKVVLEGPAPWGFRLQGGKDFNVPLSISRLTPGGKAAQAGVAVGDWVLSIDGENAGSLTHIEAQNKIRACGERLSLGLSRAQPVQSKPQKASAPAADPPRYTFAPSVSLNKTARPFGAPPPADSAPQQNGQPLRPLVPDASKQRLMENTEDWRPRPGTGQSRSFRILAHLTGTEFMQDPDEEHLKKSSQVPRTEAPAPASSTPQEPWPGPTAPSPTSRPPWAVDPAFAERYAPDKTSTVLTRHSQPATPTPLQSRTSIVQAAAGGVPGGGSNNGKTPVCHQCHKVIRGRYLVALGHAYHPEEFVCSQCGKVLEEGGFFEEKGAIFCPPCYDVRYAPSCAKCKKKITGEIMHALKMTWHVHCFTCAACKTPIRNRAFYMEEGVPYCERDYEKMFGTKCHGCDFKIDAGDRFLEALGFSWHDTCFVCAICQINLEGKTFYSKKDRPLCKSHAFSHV
UniProt Q9Y3P9: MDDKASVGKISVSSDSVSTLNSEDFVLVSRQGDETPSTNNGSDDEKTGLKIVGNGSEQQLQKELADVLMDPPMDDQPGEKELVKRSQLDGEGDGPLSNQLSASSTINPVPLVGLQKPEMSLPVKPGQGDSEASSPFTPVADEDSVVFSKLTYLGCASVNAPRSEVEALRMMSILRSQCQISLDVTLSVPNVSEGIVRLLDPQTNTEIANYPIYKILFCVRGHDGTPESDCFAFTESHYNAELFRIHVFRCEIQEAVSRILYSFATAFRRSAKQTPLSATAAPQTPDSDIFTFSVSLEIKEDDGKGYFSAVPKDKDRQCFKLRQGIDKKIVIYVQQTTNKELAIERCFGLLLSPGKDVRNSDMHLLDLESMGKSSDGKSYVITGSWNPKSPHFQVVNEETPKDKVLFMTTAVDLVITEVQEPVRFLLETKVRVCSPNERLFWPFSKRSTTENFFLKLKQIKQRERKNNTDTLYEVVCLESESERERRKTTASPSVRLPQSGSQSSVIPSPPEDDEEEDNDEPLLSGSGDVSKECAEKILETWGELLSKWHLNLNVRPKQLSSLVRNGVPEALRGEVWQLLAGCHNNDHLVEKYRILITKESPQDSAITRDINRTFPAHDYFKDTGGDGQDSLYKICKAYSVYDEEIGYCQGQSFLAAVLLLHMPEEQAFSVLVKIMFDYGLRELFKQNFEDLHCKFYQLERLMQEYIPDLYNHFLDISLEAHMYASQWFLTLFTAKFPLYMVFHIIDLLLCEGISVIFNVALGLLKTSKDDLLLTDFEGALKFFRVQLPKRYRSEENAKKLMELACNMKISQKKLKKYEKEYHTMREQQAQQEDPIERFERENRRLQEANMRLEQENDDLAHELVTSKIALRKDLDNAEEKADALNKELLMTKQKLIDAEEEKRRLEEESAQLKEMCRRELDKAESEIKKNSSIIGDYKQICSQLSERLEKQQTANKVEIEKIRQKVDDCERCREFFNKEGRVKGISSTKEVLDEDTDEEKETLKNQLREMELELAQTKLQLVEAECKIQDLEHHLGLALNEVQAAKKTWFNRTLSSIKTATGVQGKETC

What was measured:
Assay in all cases: pull-down; GST-APP tail WT, tail mutants or GST only on glutathione-Sepharose beads, incubated overnight at 4 °C with pre-cleared HEK293T lysate; eluted with […] NaCl; eluates immunoblotted for the hits; N = 3; only the target purified
[1] = target: GST fused to the APP cytosolic tail mutant Y687A (UniProt P05067)
[2] = target: GST fused to the APP cytosolic tail mutant Y682A (UniProt P05067)
[3] = target: GST fused to the APP cytosolic tail mutant D664A (UniProt P05067)
[4] = target: GST fused to the WT cytosolic tail of APP (649-695) (UniProt P05067)
[5] = target: GST fused to the APP cytosolic tail mutant N684A (UniProt P05067)
[6] = target: GST fused to the APP cytosolic tail mutant FFE689-91AAA (UniProt P05067)

| Substance | binding [1] | binding [2] | binding [3] | binding [4] | binding [5] | binding [6] |
| --- | --- | --- | --- | --- | --- | --- |
| NUMB (from UniProt P49757 1-651) | no binding | no binding | no binding | binds | no binding |  |
| PDLIM7 (from UniProt Q9NR12 1-457) | binds | binds | binds | binds | binds | binds |
| RABGAP1 (from UniProt Q9Y3P9 1-1069) | no binding | no binding |  | binds | no binding |  |
